In PubChem BioAssay AID588342 (National Center for Advancing Translational Sciences (NCATS), 2011):
About 25,000 (6.9%) of roughly 360,000 compounds were called active. Inconclusive results, whose numbers are uncertain, are shown with a selection of clear calls. Calls follow the shape of the dose curve; as a rule, active = well fitted inhibition curve with a large enough effect; inconclusive = small, poorly fitted or top-dose-only effect; inactive = flat fitted curve, though single readings scatter. Potencies of inconclusive entries are doubtful fits and often do not repeat.

Target: Luciferin 4-monooxygenase (Photinus pyralis) (UniProt P08659)
Experiment: qHTS profiling assay for firefly luciferase inhibitor/activator using purifed enzyme and Km concentrations of substrates (counterscreen for miR-21 project); also: nearly all actives have a fitted effect of over 55% in size;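 as to activity change, negative = inhibition: plate controls were vehicle for no effect and reference inhibitor for full effect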
Conditions: purified FLuc, luminescence inhibition; series mostly up to 57.5 µM; activity change, negative = inhibition: at the top concentration
Method in brief: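 Purified P. pyralis luciferase, 10 nM final, with Km-level 10 uM D-luciferin and 10 uM ATP in 50 mM Tris acetate pH 7.5, 10 mM Mg acetate, 0.01% Tween-20, 0.05% BSA; 6-point qHTS titration about 60 µM downward; luminescence read.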
Potency is read from the fitted curve at half-maximal effect; tags tell the direction and shape of the fitted curve.

Sequence of UniProt P08659 (P08659 whole entry, looked up): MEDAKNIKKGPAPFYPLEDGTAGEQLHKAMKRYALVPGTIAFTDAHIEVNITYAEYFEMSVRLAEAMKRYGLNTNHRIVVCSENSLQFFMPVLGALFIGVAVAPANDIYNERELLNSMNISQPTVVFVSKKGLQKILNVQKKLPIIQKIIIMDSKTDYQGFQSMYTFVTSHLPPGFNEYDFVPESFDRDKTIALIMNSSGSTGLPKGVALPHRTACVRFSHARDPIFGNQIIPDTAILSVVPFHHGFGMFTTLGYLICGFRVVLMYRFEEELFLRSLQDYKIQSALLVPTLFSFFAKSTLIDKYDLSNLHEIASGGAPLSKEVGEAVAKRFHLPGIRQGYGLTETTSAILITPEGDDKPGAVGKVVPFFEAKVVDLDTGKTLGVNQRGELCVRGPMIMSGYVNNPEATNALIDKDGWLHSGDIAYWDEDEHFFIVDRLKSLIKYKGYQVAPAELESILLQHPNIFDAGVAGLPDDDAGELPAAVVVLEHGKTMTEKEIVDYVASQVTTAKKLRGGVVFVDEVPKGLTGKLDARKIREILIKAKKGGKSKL

Q: `COc1ccc2c(c1)S/C(=C\C(=O)c1ccncc1)N2C` was tested. Which Potency did it give?
A: Its Potency is active: 6.75 µM.

Q: How did the Potency turn out when `CC(C)NC(=O)CSc1ncccc1-c1nc2ccccc2[nH]1` was run?
A: Its Potency is inconclusive: 23.9 µM [inhibitor, single point].

Q: Which Potency does the source give for `CCOc1c(OC(C)=O)ccc(/C=C/c2ccc3cccc(OC(C)=O)c3n2)c1[N+](=O)[O-]` here?
A: Its Potency is inconclusive: 12 µM [inhibitor, partial curve, poor fit].

Q: Which Potency does the source give for `O=C(O)/C(=C1\OC(=O)c2ccccc21)c1ccccc1` here?
A: Its Potency is active: 26.9 µM.

Q: Which Potency does the source give for `COC(=O)c1sc(NC(=O)C(C)C)c(C(=O)OC)c1C` here?
A: Its Potency is inconclusive: 37.9 µM [inhibitor, single point].

Q: For `Clc1ccccc1CN1CCN(/N=C/C=C/c2ccco2)CC1`, which Potency is on record?
A: The Potency was active: 23.9 µM.

Q: With `Cc1ccc(C(=O)c2cncc(Br)c2)cc1` as the compound, how does the activity change, negative = inhibition read?
A: Its activity change, negative = inhibition is inactive: 0.222% [at 2.3 µM].

Q: For `Nc1ccc2c(c1)nnn2-c1ccccc1`, which Potency is on record?
A: The Potency was inconclusive: 30.1 µM [inhibitor, single point].

Q: Which Potency does the source give for `CCOC(=O)c1ccc(N2C(=O)C3CCCN3C2=S)cc1` (centres undefined) here?
A: Its Potency is inconclusive: 26.9 µM [inhibitor, partial curve, poor fit].

Q: With `CCC1=C(c2ccc(C)cc2)S(=O)(=O)N=C1N1CCC(C(=O)N2CCCCC2)CC1` as the compound, how does the “activity change, negative = inhibition” value read?
A: Its value is inactive: -2.2%.

Q: For `CN=C1S/C(=C\c2ccc(O)c(Br)c2)C(=O)N1C`, which Potency is on record?
A: The Potency was active: 15.1 µM.

Q: `CCOC(=O)C1(CCc2ccccc2)CCN(C(=O)c2cnc(C)cn2)CC1` was tested. Which Potency did it give?
A: Its Potency is inconclusive: 37.9 µM [inhibitor, partial curve, poor fit].

Q: Which Potency does the source give for `Cc1[nH]n(-c2ccccc2)c(=O)c1N=Nc1ccc2c(c1)OCO2` here?
A: The Potency was active: 6.01 µM.

Q: With `CCS(=O)(=O)NCCc1csc2nc(-c3ccc(C)cc3)nn12` as the compound, how does the “activity change, negative = inhibition” value read?
A: The value was inactive: -3.44%.

Q: How did the Potency turn out when `COc1ccc(/C=C2\Sc3ccc(C(=O)NCCN4CCCCCC4)cc3N(C)C2=O)cc1` was run?
A: The Potency was inconclusive: 16.9 µM [inhibitor, partial curve].

Q: For `Cc1cc(C)c(-n2[nH]nnc2=S)c(C)c1`, which “activity change, negative = inhibition” value is on record?
A: The value was inactive: 1.29%.

Q: `CCn1c(=O)n(CC(=O)NCc2ccccc2OC)c(=O)c2ccccc21` was tested. Which “activity change, negative = inhibition” value did it give?
A: Its value is inactive: 7.44%.

Q: Which Potency does the source give for `COc1cc(NC(=O)c2ccc(Cl)cc2)c(OC)cc1NC(=O)CN1CCCCC1` here?
A: The Potency was inconclusive: 26.9 µM [inhibitor, partial curve, poor fit].

Q: With `COc1ccccc1-c1nnc(NC(=O)c2ccccc2F)o1` as the compound, how does the Potency read?
A: Its Potency is inconclusive: 23.9 µM [inhibitor, partial curve].

Q: With `Cc1ccc(C)c(NC(=O)Nc2csc3c2CCCC3)c1` as the compound, how does the “activity change, negative = inhibition” value read?
A: Its value is inactive: -0.389%.

Q: Which Potency does the source give for `COc1cc(/C=N/NC(=O)c2ccc3nc[nH]c3c2)cc(OC)c1OC` here?
A: Its Potency is active: 12 µM.

Q: Which Potency does the source give for `N#Cc1ccsc1NC(=O)COC(=O)c1cc(Br)ccc1O` here?
A: Its Potency is active: 9.53 µM.

Q: How did the Potency turn out when `CC(C)NC(=O)C1CCN(C(=O)N2CC(C)Oc3ccccc32)CC1` (centres undefined) was run?
A: The Potency was inconclusive: 2.13 µM [inhibitor, full curve].

Q: Which “activity change, negative = inhibition” value does the source give for `CCOc1ccc2nc(N3CCCC(C(=O)NCc4ccc(C)cc4)C3)sc2c1` (centres undefined) here?
A: Its value is inactive: -18.9%.

Q: Which Potency does the source give for `Cc1cccc(C(=O)OCC(=O)Nc2ccc3c(c2)OCCO3)c1O` here?
A: The Potency was inconclusive: 3.38 µM [inhibitor, partial curve, poor fit].

Q: Which Potency does the source give for `O=C(CCCc1nc2ccccc2s1)N1CCN(c2ccccc2)CC1` here?
A: Its Potency is inconclusive: 42.6 µM [inhibitor, partial curve, poor fit].

Q: For `Cc1cccc(-n2ncc3c(NNC(=O)c4ccco4)ncnc32)c1`, which Potency is on record?
A: The Potency was inconclusive: 21.3 µM [inhibitor, single point].

Q: Which Potency does the source give for `COc1ccccc1CNc1ccc(-c2nc(-c3cccc(C)c3)no2)cc1[N+](=O)[O-]` here?
A: The Potency was inconclusive: 30.1 µM [inhibitor, partial curve, poor fit].

Q: With `CN(Cc1cccs1)C(=O)/C=C/c1ccccc1[N+](=O)[O-]` as the compound, how does the Potency read?
A: Its Potency is inconclusive: 37.9 µM [inhibitor, partial curve, poor fit].

Q: With `C/C(=N\NC(=O)c1cccnc1)c1ccccc1` as the compound, how does the “activity change, negative = inhibition” value read?
A: Its value is inactive: -11.1%.

Q: For `COc1ccc(-n2nc(C(=O)NCc3ccc(F)cc3)c3c4ccccc4n(C)c3c2=O)cc1`, which “activity change, negative = inhibition” value is on record?
A: The value was inactive: 3.67%.

Q: For `O=C(NCCSCc1ccco1)Nc1ccccc1`, which Potency is on record?
A: Its Potency is active: 16.9 µM.

Q: How did the Potency turn out when `Cc1cc(NC(=O)c2ccc([N+](=O)[O-])cc2Cl)ccc1NC(=O)c1ccco1` was run?
A: The Potency was inconclusive: 7.57 µM [inhibitor, partial curve].

Q: `Cn1nccc1C(=O)N(CCN1CCCCC1)CC1CCCN(C2CCCC2)C1` (centres undefined) was tested. Which Potency did it give?
A: Its Potency is inconclusive: 23.9 µM [inhibitor, partial curve, poor fit].

Q: `CCn1cc(/C=N/NC(=O)COc2cccc3cccnc23)c2ccccc21` was tested. Which Potency did it give?
A: The Potency was inconclusive: 7.57 µM [inhibitor, partial curve, poor fit].

Q: `Cc1ccc(CNC(=O)COc2ccc(C)nc2[N+](=O)[O-])cc1` was tested. Which “activity change, negative = inhibition” value did it give?
A: The value was inactive: -1.55%.

Q: Which Potency does the source give for `CCOC(=O)c1cnc(Nc2ccc(OCC)cc2)nc1C` here?
A: Its Potency is inconclusive: 10.7 µM [inhibitor, partial curve].

Q: For `O=C(O)COc1cccc(/C=C2/SC(=S)N(Cc3ccccc3)C2=O)c1`, which Potency is on record?
A: The Potency was inconclusive: 15.1 µM [inhibitor, partial curve, poor fit].

Q: Which Potency does the source give for `O=C(Nc1cccc(S(=O)(=O)N2CCCCCC2)c1)c1ccc2ccccc2n1` here?
A: Its Potency is inconclusive: 13.5 µM [inhibitor, partial curve].

Q: With `Cc1ccc(C(=O)Oc2oc(-c3ccco3)nc2C=Nc2ccc(Cl)cc2)cc1` as the compound, how does the Potency read?
A: The Potency was active: 4.78 µM.

Q: How did the “activity change, negative = inhibition” value turn out when `O=C(NCCc1ccccc1)c1ccc(CSc2nc3ccncc3n2Cc2cccc(F)c2)cc1` was run?
A: The value was inactive: -13.1%.

Q: How did the “activity change, negative = inhibition” value turn out when `COc1cc(NC(=O)CSc2ncnc3sc4c(c23)CCCC4)c(C(=O)O)cc1OC` was run?
A: The value was inactive: -2.49%.

Q: `Cc1cc(C(=O)Nc2ccc(C)c(S(=O)(=O)N3CCOCC3)c2)c2ccccc2n1` was tested. Which “activity change, negative = inhibition” value did it give?
A: The value was inactive: -0.289%.

Q: `CC(OC(=O)CC1CCCC1)C(=O)Nc1ccc(Cl)cn1` (centres undefined) was tested. Which “activity change, negative = inhibition” value did it give?
A: The value was inactive: 2.05%.

Q: For `CC(=O)Nc1ccc(SCc2csc(C)n2)cc1`, which “activity change, negative = inhibition” value is on record?
A: Its value is inactive: -5.48%.

Q: Which Potency does the source give for `Cc1ccc2c(c1)c1ncnc(N3CCc4ccccc4C3)c1n2C` here?
A: The Potency was active: 13.5 µM.

Q: Which Potency does the source give for `CCCN1C(=O)/C(=c2\sc3nc(=O)c(Cc4ccc(C)cc4)nn3c2=O)c2ccccc21` here?
A: Its Potency is inconclusive: 23.9 µM [inhibitor, partial curve, poor fit].

Q: With `Fc1cccc(/C=N/Nc2ccccn2)c1` as the compound, how does the Potency read?
A: Its Potency is active: 12 µM.

Q: `N#Cc1cccc(-c2nnc(SCc3ccccc3C#N)o2)c1` was tested. Which Potency did it give?
A: Its Potency is inconclusive: 23.9 µM [inhibitor, partial curve].

Q: With `Cc1cccc(NC(=O)/C(=C\c2ccco2)NC(=O)c2ccccc2)c1` as the compound, how does the “activity change, negative = inhibition” value read?
A: The value was inactive: -10.3%.

Q: `COc1ccc(-c2nn(-c3ccccc3)cc2/C=N/NC(N)=S)cc1OC` was tested. Which Potency did it give?
A: Its Potency is active: 5.36 µM.

Q: `COc1cccc(CC(=O)Nc2ccc3c(c2)OC2(CCCC2)O3)c1` was tested. Which Potency did it give?
A: The Potency was active: 13.5 µM.

Q: With `CC(=O)Nc1cccc(C(=O)OCC(=O)c2ccccc2Cl)c1` as the compound, how does the Potency read?
A: The Potency was inconclusive: 0.757 µM [inhibitor, full curve, poor fit].

Q: Which Potency does the source give for `Cc1ccccc1OCCNc1ccc(C(F)(F)F)cc1[N+](=O)[O-]` here?
A: Its Potency is inconclusive: 37.9 µM [inhibitor, single point].

Q: Which Potency does the source give for `CCOC(=O)/C(C#N)=C/Nc1ccccc1OC` here?
A: Its Potency is active: 6.75 µM.

Q: Which Potency does the source give for `CC(=O)N1N=C(c2ccc(C(C)(C)C)cc2)OC1(C)C` here?
A: Its Potency is inconclusive: 23.9 µM [inhibitor, single point].

Q: How did the Potency turn out when `COCCNC(=O)c1cc2cc3ccc(OC)cc3nc2o1` was run?
A: Its Potency is inconclusive: 42.6 µM [inhibitor, partial curve, poor fit].

Q: How did the Potency turn out when `Cc1cc(/C=C2/NC(=O)N(Cc3ccccc3F)C2=O)c(C)n1C(C)C` was run?
A: The Potency was inconclusive: 4.78 µM [inhibitor, partial curve, poor fit].

Q: Which Potency does the source give for `CCNc1ccccc(C(=O)/C=C/c2ccc3c(c2)OCO3)c1=O` here?
A: Its Potency is inconclusive: 12 µM [inhibitor, partial curve].

Q: For `C/C(=N/NC(=O)c1sc(NS(=O)(=O)c2ccc(C)cc2)nc1C)c1sc(N)nc1C`, which Potency is on record?
A: Its Potency is inconclusive: 10.7 µM [inhibitor, partial curve].

Q: Which Potency does the source give for `Cc1ccc(NC(=O)c2nc(S(=O)(=O)Cc3ccccc3)ncc2Cl)cc1` here?
A: Its Potency is inconclusive: 37.9 µM [inhibitor, partial curve, poor fit].

Q: Which Potency does the source give for `Cc1ccc(/C=N/NC(=O)c2ccncc2)cc1` here?
A: The Potency was inconclusive: 26.9 µM [inhibitor, partial curve].

Q: How did the Potency turn out when `O=C(Nc1cccnc1)c1sc2cccc(F)c2c1Cl` was run?
A: The Potency was active: 8.49 µM.

Q: For `CC(=O)OCCN(CCCn1c(-c2ccncc2)nc2ccccc21)c1nc(CN2CCCCC2)cs1`, which “activity change, negative = inhibition” value is on record?
A: The value was inactive: 5.1%.

Q: Which Potency does the source give for `CN(CC(=O)Nc1ccc(F)cc1)C(=O)c1ccc(-c2ccc(Cl)cc2)o1` here?
A: The Potency was inconclusive: 23.9 µM [inhibitor, single point].

Q: For `O=C(CCCCn1c(=O)c2ccccc2n(Cc2ccccc2F)c1=O)NCc1ccccc1Cl`, which “activity change, negative = inhibition” value is on record?
A: The value was inactive: 1.05%.

Q: `CC(=O)c1ccc(NC(=O)N2CCc3ccccc3C2)cc1` was tested. Which Potency did it give?
A: The Potency was inconclusive: 30.1 µM [inhibitor, single point].

Q: How did the Potency turn out when `COCCNC(=O)NC(=O)COC(=O)c1ccc2[nH]c3c(c2c1)CCCC3` was run?
A: Its Potency is inconclusive: 30.1 µM [inhibitor, partial curve, poor fit].

Q: Which “activity change, negative = inhibition” value does the source give for `CCC(Oc1ccccc1)C(=O)Nc1ccc(OCc2cc(=O)n3ccc(C)cc3n2)cc1` (centres undefined) here?
A: Its value is inactive: -14.9%.

Q: Which “activity change, negative = inhibition” value does the source give for `Cc1nnc2ccc(-c3ccc(NS(=O)(=O)c4ccccc4[N+](=O)[O-])cc3)nn12` here?
A: Its value is inactive: 3.97%.

Q: How did the Potency turn out when `CCCc1nn(C)c(C(=O)Nc2ccc(CC)cc2)c1Cl` was run?
A: The Potency was inconclusive: 26.9 µM [inhibitor, single point].

Q: Which Potency does the source give for `CSc1ncnc2c1cnn2-c1ccc(C)cc1C` here?
A: Its Potency is inconclusive: 37.9 µM [inhibitor, single point].

Q: `CC(C)Oc1cccc(-c2cc(C(=O)N3CCN(S(C)(=O)=O)CC3)c3ccccc3n2)c1` was tested. Which Potency did it give?
A: Its Potency is active: 3.01 µM.

Q: How did the Potency turn out when `COC(=O)C(C)n1cnc2c(nnn2-c2cccc(OC)c2)c1=O` (centres undefined) was run?
A: The Potency was inconclusive: 19 µM [inhibitor, single point].
